PubChem BioAssay AID602332 (National Center for Advancing Translational Sciences (NCATS), 2012)
Where “and” joins values, the source holds several entries; their conditions need not be identical. Equal entries are not always repeated. About 75 (0.02%) of roughly 420,000 compounds were called active. The inconclusive results got no clear call from the source; some entries with a clear call stand among them for comparison. Calls follow the shape of the dose curve; as a rule, active = well fitted activation curve with a large enough effect; inconclusive = small, poorly fitted or top-dose-only effect; inactive = no such curve, though single readings can be large or run the other way. A potency beside an inconclusive call is a rough fit, not a confirmed value.

Experiment: qHTS for Inducers of the Endoplasmic Reticulum Stress Response (ERSR) in Human Glioma: qHTS; also: nearly all actives have a fitted effect of over 35% in size; as to activation: % of control where 0% means no effect
Settings: U87-MG GRP78 promoter luciferase reporter, 16 h; activation: stronger effect = higher value
Method in brief: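 Stably transfected U87-MG human glioma cells carrying a GRP78-based luminescent sensor were seeded at 1000 cells/well, pin-dosed with compounds and incubated 16 h. Luciferase reagent was then added, and end-point luminescence was read after 10 min at room temperature.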
Potency is read from the fitted curve at half-maximal effect; tags tell the direction and shape of the fitted curve.

Structure (SMILES)	Potency	activation
Cc1ccc(C(=O)COC(=O)CSc2cccc3cccnc23)c(C)c1	inconclusive: 50.1 µM [activator, single point]	–
Cc1c(NC(=O)Nc2ccc(Cl)c(Cl)c2)sc(=S)n1C	–	inactive: -2.38%
S=C1NCN(Cc2ccco2)CN1CCc1ccccc1	–	inactive: 1.02%
CC(C)CCn1c(=O)[nH]c2ccccc21	inconclusive: 10 µM [activator, single point]	–
COc1cc(C(=O)Nc2ccc(S(=O)(=O)Nc3nccc(C)n3)cc2)cc(OC)c1OC	active: 31.6 µM	–
Oc1ccc(N=Nc2ccccc2)cc1	inconclusive: 14.1 µM [activator, full curve, poor fit]	–
Cc1nnc(SCc2nc(N)nc(Nc3ccccc3)n2)s1	inconclusive: 15.8 µM [activator, single point]	–
CCCC(=O)N1CCCC(c2cc(C(=O)NCc3ccc(F)cc3)no2)C1 (configuration not stated)	inconclusive: 28.2 µM [activator, single point]	–
NC(=O)SCC(=O)Nc1ccc(Cl)cc1	inconclusive: 35.5 µM [activator, partial curve, poor fit]	–
CC(C)(C)C(=O)C(Cl)C(=O)Nc1ccccc1 (configuration not stated)	inconclusive: 28.2 µM [activator, single point]	–
CCN(CC)CCC(=O)c1ccc(F)cc1	–	inactive: -2.76%
Oc1c(CN2CCCCC2)cc(Br)c2cccnc12	inconclusive: 15.8 µM [activator, full curve, poor fit]	–
COC(=O)CSc1nnc(-c2ccc(S(=O)(=O)N3CCCC3)cc2)o1	inconclusive: 44.7 µM [activator, partial curve, poor fit]	–
CC1(C)Cc2c(c(N3CCCC3)nc3sc(C(=O)Nc4ccccc4)c(N)c23)CO1	inconclusive: 25.1 µM [activator, partial curve, poor fit]	–
Cc1ccc(O)c(NC(=S)NC(=O)Cc2ccc(Cl)cc2)c1	inconclusive: 44.7 µM [activator, partial curve, poor fit]	–
CCc1sc(C(=O)Nc2nccs2)cc1C	–	inactive: -6.56%
O=C1C(=Cc2cccc(Cl)c2)CCc2ccccc21	inconclusive: 50.1 µM [activator, single point]	–
COC(=O)c1c(C)oc2ccc(N(C(=O)c3ccncc3)S(=O)(=O)c3ccccc3)cc12	–	inactive: -4.03%
COC(=O)C(/C=N/OCc1ccc([N+](=O)[O-])cc1)NC(=O)c1ccccc1 (configuration not stated)	inconclusive: 44.7 µM [activator, partial curve, poor fit]	–
Cc1cccc(NC(=O)c2ccc(N(Cc3ccccc3)S(C)(=O)=O)cc2)c1	inconclusive: 25.1 µM [activator, single point]	–
O=[N+]([O-])c1cc([N+](=O)[O-])c(Oc2cccnc2Br)cc1NN1CCCCC1	inconclusive: 44.7 µM [activator, partial curve, poor fit]	–

Structure (SMILES)	Potency	activation
COc1ccc(-c2cc(-c3cc(C)ccc3O)[nH]n2)cc1	inconclusive: 10 µM [activator, partial curve, poor fit]	–
O=C(/C=C/c1ccc(O)cc1)c1ccc(O)cc1O	inconclusive: 44.7 µM [activator, partial curve, poor fit] and inconclusive: 2.93 µM [activator, full curve, poor fit]	–
COC(C/C=C\[C@@H](O)[C@@H](C)OCc1ccccc1)OC	–	inactive: -3%
COc1cccc(/C=C/C(=O)OCC(=O)Nc2ccc(Cl)c(S(=O)(=O)N(C)C)c2)c1	–	inactive: -2.64%
CCNC(=S)N1CCc2cc(OC)c(OC)cc2C1COc1ccc(F)cc1 (configuration not stated)	inconclusive: 11.2 µM [activator, full curve, poor fit]	–
N#Cc1ccc(S(=O)(=O)NC[C@H]2O[C@@H](n3cnc4c(N)ncnc43)[C@H](O)[C@@H]2O)cc1	–	inactive: -0.208%
CC1(C)Cc2c(sc(NC(=O)/C=C/C(=O)O)c2C#N)CO1	–	inactive: -3.41%
Cc1ccc2oc(=O)c(/C=C(\O)c3ccccc3)nc2c1	inconclusive: 2.24 µM [activator, full curve, poor fit]	–
Cc1ccc(-c2cn(-c3cccc(Cl)c3)c(S(=O)(=O)CC(=O)Nc3cccc(C)c3)n2)cc1	–	inactive: 3.62%
O=C(CNc1cccc(C(F)(F)F)c1)N/N=C/c1cn(-c2ccccc2)nc1-c1ccccc1	inconclusive: 39.8 µM [activator, partial curve]	–
COc1ccc(-c2nc(-c3ccc(Br)o3)no2)cc1OC	–	inactive: 0.0937%
COc1cc(OC)cc(C(=O)NNC(=O)c2ccc3ccccc3n2)c1	inconclusive: 50.1 µM [activator, single point]	–
[N-]=[N+]=NCCN1CCN(CCc2ccccc2)CCC1=O	inconclusive: 12.6 µM [activator, single point]	–
Cc1cc(C)c(S(=O)(=O)/N=C2/C=C(SCC(=O)O)C(=O)c3ccccc32)cc1C	inconclusive: 12.6 µM [activator, full curve, poor fit]	–
COc1ccccc1C(=O)Nn1c(-c2cccs2)nc2ccccc2c1=O	inconclusive: 14.1 µM [activator, single point]	–
Cc1ccc(NC(=O)NC2CCCCCCC2)cc1C	inconclusive: 10 µM [activator, partial curve, poor fit]	–
O=C(O)c1cccc(Nc2nc3ccccc3nc2NS(=O)(=O)c2ccc(F)cc2)c1	inconclusive: 28.2 µM [activator, single point]	–
CCCN(c1ccc(C(C)C)cc1)S(=O)(=O)c1ccc2c(c1)oc(=O)n2CC(=O)OCC	active: 20 µM	–
CCOC(=O)c1ccc(N=c2sc(C(=O)OC)cc(=O)n2Cc2ccco2)cc1	inconclusive: 22.4 µM [activator, single point]	–
Cc1cc2c(cc1C)NC(CC(=O)NCc1ccccc1)C(=O)N2 (configuration not stated)	–	inactive: -0.256%
CCOC(=O)CSC1=C(C#N)C(c2ccco2)C(C(=O)Nc2cccc(C(F)(F)F)c2)=C(C)N1 (configuration not stated)	inconclusive: 25.1 µM [activator, single point]	–
